Test results taken from the supplement of paper PMC10369915.
Some of the results follow. Rule as the data show it: active = 3.2 or more and inactive = the rest. The signal is at background level for most entries.

Experiments:
Test in all cases: enrichment score (SH2-bound / input frequency) (ratio); bacterial display of known human phosphotyrosine sites (pTyr-Var adds point mutants) read by sequencing; higher = stronger binding; tyrosines were phosphorylated by kinases first
Settings in all cases: peptide library: Human pTyr
SHP2 C-SH2 domain E139D = target: SHP2 C-SH2 domain E139D
[1] = target: SHP2 C-SH2 domain wild-type
SHP2 N-SH2 domain L43F = target: SHP2 N-SH2 domain L43F
SHP2 N-SH2 domain T42A = target: SHP2 N-SH2 domain T42A
SHP2 N-SH2 domain T52S = target: SHP2 N-SH2 domain T52S
[2] = target: SHP2 N-SH2 domain wild-type

Measured: enrichment score
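Also: displayed peptides selected on beads carrying the immobilized SH2 domain, with library peptides lacking any tyrosine serving as negative controls.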

SKAVCSTYLQSRYYR [HIPK2_HUMAN_361]
inactive: SHP2 C-SH2 domain E139D 0.898 | [1] 0.774 | SHP2 N-SH2 domain L43F 0.787 | SHP2 N-SH2 domain T42A 0.831 | SHP2 N-SH2 domain T52S 1.06 | [2] 1.12

AQEDGKVYINMPGRG [HCST_HUMAN_86]
inactive: SHP2 C-SH2 domain E139D 0.781 | [1] 0.704 | SHP2 N-SH2 domain L43F 0.553 | SHP2 N-SH2 domain T42A 0.572 | SHP2 N-SH2 domain T52S 0.538 | [2] 0.587

ISTRRSSYEDSSLPS [HNF4A_HUMAN_144]
inactive: SHP2 C-SH2 domain E139D 1 | [1] 1.11 | SHP2 N-SH2 domain L43F 1.11 | SHP2 N-SH2 domain T42A 1.11 | SHP2 N-SH2 domain T52S 0.757 | [2] 1.24

GGGGMPPYTVVAFPV [GSTP1_HUMAN_4_YA]
inactive: SHP2 C-SH2 domain E139D 1.49 | [2] 1.01
active: [1] 4.45 | SHP2 N-SH2 domain L43F 7.4 | SHP2 N-SH2 domain T42A 13.8 | SHP2 N-SH2 domain T52S 4.89

IDDNEAAYLKAIIFF [HNF4A_HUMAN_288_YA]
inactive: SHP2 C-SH2 domain E139D 2.06 | [1] 1.94 | SHP2 N-SH2 domain L43F 1.91 | SHP2 N-SH2 domain T42A 1.67 | SHP2 N-SH2 domain T52S 2.06 | [2] 2.08

SDKGNLMYSDNRSFQ [GRIN2A_HUMAN_943]
inactive: SHP2 C-SH2 domain E139D 0.799 | [1] 0.747 | SHP2 N-SH2 domain L43F 0.8 | SHP2 N-SH2 domain T42A 0.657 | SHP2 N-SH2 domain T52S 0.813 | [2] 0.719

NGSFGGQYSECRDPA [AKAP8_HUMAN_170]
inactive: SHP2 C-SH2 domain E139D 0.789 | [1] 0.988 | SHP2 N-SH2 domain L43F 0.9 | SHP2 N-SH2 domain T42A 0.848 | SHP2 N-SH2 domain T52S 0.774 | [2] 0.963

NNDQYKLYSKHFTLK [GRIN2A_HUMAN_1187]
inactive: SHP2 C-SH2 domain E139D 0.995 | [1] 0.955 | SHP2 N-SH2 domain L43F 1.1 | SHP2 N-SH2 domain T42A 0.755 | SHP2 N-SH2 domain T52S 1.06 | [2] 1.32

IGAGKGKYYAVNFPM [HDAC2_HUMAN_222]
inactive: SHP2 C-SH2 domain E139D 2.18 | [1] 2.58 | SHP2 N-SH2 domain L43F 2.34 | SHP2 N-SH2 domain T42A 2.56 | SHP2 N-SH2 domain T52S 2.93 | [2] 2.68

SSNFDSIYICPSTFA [HDAC6_HUMAN_570]
inactive: SHP2 C-SH2 domain E139D 1.54 | [1] 1.34 | SHP2 N-SH2 domain L43F 1.32 | SHP2 N-SH2 domain T42A 1.33 | SHP2 N-SH2 domain T52S 1.55 | [2] 1.72

IGAGKGKYAAVNFPM [HDAC2_HUMAN_222_YA]
inactive: SHP2 C-SH2 domain E139D 2.37 | [1] 3.11 | SHP2 N-SH2 domain L43F 2.5 | SHP2 N-SH2 domain T42A 2.33 | SHP2 N-SH2 domain T52S 2.53 | [2] 2.8

VGAHAGEYGAEALER [HBA_HUMAN_25]
inactive: SHP2 C-SH2 domain E139D 0.652 | [1] 0.523 | SHP2 N-SH2 domain L43F 0.557 | SHP2 N-SH2 domain T42A 0.629 | SHP2 N-SH2 domain T52S 0.515 | [2] 0.599

YAGGRGSYGDLGGPI [HNRPK_HUMAN_380]
inactive: SHP2 C-SH2 domain E139D 0.55 | [1] 0.524 | SHP2 N-SH2 domain L43F 0.63 | SHP2 N-SH2 domain T42A 0.626 | SHP2 N-SH2 domain T52S 0.812 | [2] 0.512

CLRMGNLYDIDEDQM [GRIN2A_HUMAN_1246]
inactive: SHP2 C-SH2 domain E139D 1.5 | [1] 1.37 | SHP2 N-SH2 domain L43F 1.45 | SHP2 N-SH2 domain T42A 1.4 | SHP2 N-SH2 domain T52S 1.54 | [2] 1.6

GVKKPHRYRPGTVAL [H31_HUMAN_42]
inactive: SHP2 C-SH2 domain E139D 2.01 | [1] 2.15 | SHP2 N-SH2 domain L43F 1.94 | SHP2 N-SH2 domain T42A 2.06 | SHP2 N-SH2 domain T52S 2.28 | [2] 2.65

VVKDPSIYDTLESVR [GRASP_HUMAN_237]
inactive: SHP2 C-SH2 domain E139D 0.875 | [1] 0.697 | SHP2 N-SH2 domain L43F 0.715 | SHP2 N-SH2 domain T42A 0.615 | SHP2 N-SH2 domain T52S 0.706 | [2] 0.828

MPPATVVYFPVRGRC [GSTP1_HUMAN_8_YA]
inactive: SHP2 C-SH2 domain E139D 0.644 | [1] 1.14 | SHP2 N-SH2 domain L43F 0.457 | SHP2 N-SH2 domain T42A 0.423 | SHP2 N-SH2 domain T52S 0.354 | [2] 0.652

SVTTGATYSAGPASW [AKAP8_HUMAN_51_YA]
inactive: SHP2 C-SH2 domain E139D 0.63 | [1] 0.613 | SHP2 N-SH2 domain L43F 0.527 | SHP2 N-SH2 domain T42A 0.559 | SHP2 N-SH2 domain T52S 0.557 | [2] 0.561

SKTVCSTYLQSRAAR [HIPK3_HUMAN_359_YA]
inactive: SHP2 C-SH2 domain E139D 1.14 | [1] 1.06 | SHP2 N-SH2 domain L43F 1.41 | SHP2 N-SH2 domain T42A 1.32 | SHP2 N-SH2 domain T52S 1.22 | [2] 1.14

SKTVCSTYLQSRYYR [HIPK3_HUMAN_359]
inactive: SHP2 C-SH2 domain E139D 1.37 | [1] 1.32 | SHP2 N-SH2 domain L43F 1.36 | SHP2 N-SH2 domain T42A 1.43 | SHP2 N-SH2 domain T52S 1.48 | [2] 1.4

SEDEEDDYQQKRKGV [HAP28_HUMAN_70]
inactive: SHP2 C-SH2 domain E139D 1.27 | [1] 1.06 | SHP2 N-SH2 domain L43F 0.97 | SHP2 N-SH2 domain T42A 0.978 | SHP2 N-SH2 domain T52S 0.888 | [2] 1.06

NFSVDKLYDLLFTNS [GRM1B_HUMAN_389]
inactive: SHP2 C-SH2 domain E139D 1.76 | [1] 1.85 | SHP2 N-SH2 domain L43F 1.64 | SHP2 N-SH2 domain T42A 1.68 | SHP2 N-SH2 domain T52S 2.06 | [2] 1.99

EILNSLKYVRPGGGF [GPX1_HUMAN_98]
inactive: SHP2 C-SH2 domain E139D 0.617 | [1] 0.538 | SHP2 N-SH2 domain L43F 0.574 | SHP2 N-SH2 domain T42A 0.577 | SHP2 N-SH2 domain T52S 0.596 | [2] 0.572

VRVCEPCYEQLNRKA [HGS_HUMAN_216]
inactive: SHP2 C-SH2 domain E139D 0.993 | [1] 0.713 | SHP2 N-SH2 domain L43F 0.786 | SHP2 N-SH2 domain T42A 0.69 | SHP2 N-SH2 domain T52S 0.894 | [2] 0.793

EASRLAHYNKRSTIT [H2B1B_HUMAN_84]
inactive: SHP2 C-SH2 domain E139D 0.793 | [1] 0.707 | SHP2 N-SH2 domain L43F 0.636 | SHP2 N-SH2 domain T42A 0.653 | SHP2 N-SH2 domain T52S 1.3 | [2] 1.03

TLRAEDMYSAQSHQA [GPC5C_HUMAN_414]
inactive: SHP2 C-SH2 domain E139D 0.589 | [1] 0.547 | SHP2 N-SH2 domain L43F 0.609 | SHP2 N-SH2 domain T42A 0.757 | SHP2 N-SH2 domain T52S 0.587 | [2] 0.64

TVEFLQEYIVNRNKK [AKAP8_HUMAN_436]
inactive: SHP2 C-SH2 domain E139D 1.19 | [1] 0.707 | SHP2 N-SH2 domain L43F 1.07 | SHP2 N-SH2 domain T42A 0.785 | SHP2 N-SH2 domain T52S 0.895 | [2] 1.2

KRKQFQLYEEPDTKL [AKAP8_HUMAN_311]
inactive: SHP2 C-SH2 domain E139D 0.737 | [1] 0.834 | SHP2 N-SH2 domain L43F 0.727 | SHP2 N-SH2 domain T42A 0.936 | SHP2 N-SH2 domain T52S 0.732 | [2] 0.681

IRSEENIYTIEENVY [HAVR2_HUMAN_265]
inactive: SHP2 C-SH2 domain E139D 1.18 | [1] 1.35 | SHP2 N-SH2 domain L43F 1.24 | SHP2 N-SH2 domain T42A 1.09 | SHP2 N-SH2 domain T52S 1.12 | [2] 1.36

ASPHCPVYVPDPTST [HCK_HUMAN_51]
inactive: SHP2 C-SH2 domain E139D 1.19 | [1] 0.901 | SHP2 N-SH2 domain L43F 0.918 | SHP2 N-SH2 domain T42A 0.987 | SHP2 N-SH2 domain T52S 0.979 | [2] 1.21

FPLFTAVYQICAESR [GPD1L_HUMAN_328_YA]
inactive: SHP2 C-SH2 domain E139D 2.04 | [1] 1.97 | SHP2 N-SH2 domain L43F 2.02 | SHP2 N-SH2 domain T42A 1.85 | SHP2 N-SH2 domain T52S 1.96 | [2] 2.13

GLSNNDQYKLYSKHF [GRIN2A_HUMAN_1184]
inactive: SHP2 C-SH2 domain E139D 0.782 | [1] 0.738 | SHP2 N-SH2 domain L43F 0.774 | SHP2 N-SH2 domain T42A 0.699 | SHP2 N-SH2 domain T52S 0.798 | [2] 1.41

TARKFLAYEMGAKSR [GPDM_HUMAN_601_YA]
inactive: SHP2 C-SH2 domain E139D 1.53 | [1] 1.17 | SHP2 N-SH2 domain L43F 1.11 | SHP2 N-SH2 domain T42A 1.4 | SHP2 N-SH2 domain T52S 1.2 | [2] 1.52

GYGGYDDYGGYNDGY [HNRH2_HUMAN_246]
inactive: SHP2 C-SH2 domain E139D 0.557 | [1] 0.483 | SHP2 N-SH2 domain L43F 0.542 | SHP2 N-SH2 domain T42A 0.522 | SHP2 N-SH2 domain T52S 0.481 | [2] 0.483

EECDQNWYKAELNGK [GRB2_HUMAN_37]
inactive: SHP2 C-SH2 domain E139D 1 | [1] 0.881 | SHP2 N-SH2 domain L43F 1.1 | SHP2 N-SH2 domain T42A 0.888 | SHP2 N-SH2 domain T52S 1.01 | [2] 1.08

IDPELARYLNRNYWE [HGS_HUMAN_329]
inactive: SHP2 C-SH2 domain E139D 0.67 | [1] 0.678 | SHP2 N-SH2 domain L43F 0.703 | SHP2 N-SH2 domain T42A 0.786 | SHP2 N-SH2 domain T52S 0.792 | [2] 0.897
